# Assay results from PubChem BioAssay AID1362 (SRMLSC, 2008).
# Where “and” joins values, the source holds several entries; their conditions need not be identical. Identical values can stand only once. The list shows a part of the results. Shown are side measurements of this screen, not its main read-out; they come without a call. The list favours compounds with an active or inconclusive main result.
# Assay: growth inhibition of WT strain, primary screen, mitochondrial fusion inhibitor project, WT and mutant strains, chemical genetic (AID 1362); further: tested in S. cerevisiae
# Conditions: mitochondrial fusion phenotypic screen, at 10 µM
row,SMILES,inhibition
1,CN1CCN(CCCN2c3ccccc3Sc3ccc(Cl)cc32)CC1,56.1% and 93.8%
2,O=C1S/C(=C\c2ccc(O)c([N+](=O)[O-])c2)C(=O)N1Cc1cccc([N+](=O)[O-])c1,67.5%
3,C/C(=N\Nc1nc2ccccc2s1)c1ccc(Br)s1,87.8%
4,O=C(Cc1ccccc1)NNc1c2ccccc2nc2ccccc12,33.2%
5,C=CCNC(=S)NNC(=O)COc1ccc(Cl)cc1Cl,60.6%
6,Clc1ccc(CN2CCN(c3ncnc4scc(-c5cccs5)c34)CC2)cc1,55.3%
7,CC1(C(=O)N(Cc2ccccc2)Cc2ccccc2)CC1(Br)Br (centres undefined),10.9%
8,Cc1nc(N2CCCCC2C)c2c(C)c(C(=O)Nc3ccccc3C(F)(F)F)sc2n1 (centres undefined),26.6%
9,CCCC(=O)N1CCN(c2ccc(NC(=O)c3ccc([N+](=O)[O-])o3)cc2Cl)CC1,82.1%
10,CCc1cccc(CC)c1NC(=O)/C(C#N)=C/c1ccccc1C(F)(F)F,26.1%
11,O=C(CSCC(=O)OCn1nnc2ccccc2c1=O)Nc1ccc(Cl)cc1,6.67%
12,Cc1ccc(NC(=O)c2cc(-c3ccccc3)nn2-c2ccccc2)c(Br)c1,2.94%
13,Cc1cc(C)nc(NC(=O)/C=C/c2ccc(Cl)cc2Cl)c1,68.7%
14,S=C(NCCSCc1c(Cl)cccc1Cl)Nc1ccccc1,59%
15,Cc1cc(=O)oc2cc(OCC3CC(c4ccc(Cl)cc4)=NO3)ccc12 (centres undefined),35.6%
16,S=C(Nc1ccc(Nc2ccccc2)cc1)NC1CCCCCC1,62.1%
17,O=C(N/N=C/c1cccc(O)c1)c1ccc(COc2ccccc2Br)cc1,20.7%
18,Cc1ccc(C)c(-n2[nH]c3c4c(ccc3c2=O)C(=O)c2ccccc2C4=O)c1,39.6%
19,Cc1cccc(C(=O)NC(=S)Nc2ccc(Cc3ccncc3)cc2)c1,32.4%
20,O=C(N1CCN(c2ccccn2)CC1)N1c2ccccc2Sc2ccccc21,35.2%
21,CCOC(=O)c1c(C)n(-c2ccc(C)cc2)c2ccc(OCC(O)CNCC3CCCO3)cc12 (centres undefined),22.1%
22,CC(C)CCN(C(=S)Nc1cccc(F)c1)C(C)c1cccs1 (centres undefined),2.52%
23,Cc1sc(NC(=O)c2ccccc2)c(C(c2ccc(Cl)cc2)N2CCN(CCO)CC2)c1C (centres undefined),26.6%
24,CC(Oc1ccc2oc3ccccc3c2c1)C(=O)NC12CC3CC(CC(C3)C1)C2 (centres undefined),7.23%
25,CN(C)CC/C=C1\c2ccccc2Sc2ccc(Cl)cc21,84.3%
26,CC(/C=N/n1c(C2CCCCC2)n[nH]c1=S)=C\c1ccccc1,85.5%
27,CCC(C(=O)OC)n1c(-c2ccccc2)nc2ccccc2c1=O (centres undefined),51.2%

row,SMILES,inhibition
1,Cc1cc(C)c2sc(N(CCN(C)C)C(=O)c3c(F)cccc3F)nc2c1,37.8%
2,CCc1ccccc1N(C1=NCCCS1)S(=O)(=O)c1ccc(C(C)(C)C)cc1,8.47%
3,C/C(=N\Nc1nc2ccccc2[nH]1)c1cc2ccccc2o1,58.6%
4,COc1ccc2[nH]c3c(NCCC4=CCCCC4)ncnc3c2c1,40.4%
5,S=C(NCc1ccccc1)N1CCN(Cc2ccc3c(c2)OCO3)CC1,39.6%
6,O=S(=O)(c1ccccc1)c1cnc(-c2ccccc2)nc1N1CCCCC1,12.4%
7,CC(C)COc1ccc(CSCCNC(=S)Nc2ccccc2)cc1,68.6%
8,CC(=O)NCCn1c(SCc2ccc(C)cc2)nc2ccccc2c1=O,22.7%
9,CC(=O)c1ccc(-n2nnnc2SCC(=O)Nc2cccc(NC(=O)c3ccco3)c2)cc1,-11.4%
10,CCSc1nnc(NC(=O)COc2ccc3ccccc3c2)s1,7.97%
11,Cc1ccc(-c2nnc(N3CCC(C)CC3)c3ccccc23)cc1C,73.6%
12,O=C(NCc1ccccc1Cl)c1cnccn1,2.33%
13,O=C(Nc1nc(-c2ccccn2)cs1)c1cc(Cl)ccc1[N+](=O)[O-],55.3%
14,Cc1nc(N2CCN(Cc3ccc4c(c3)OCO4)CC2)c2cc(-c3ccccc3)sc2n1,63.2%
15,Fc1ccc(N2CCN(c3nc(CN4CCOCC4)nc4scc(-c5ccccc5)c34)CC2)cc1,19%
16,Fc1cccc(-c2cc3nc4c(c(NCc5ccco5)n3n2)CCCC4)c1,79.2%
17,CCOc1ccc(-c2nnc(NC(=O)c3ccc(OCC(C)C)c(OC)c3)o2)cc1,29.5%
18,Cc1ccc(NC(/C=C/N(C)C)=C/C(=O)C(F)(F)F)c(C)c1,67.9%
19,COCCn1c(=O)[nH]c(=O)c2cc(C(=O)c3cc(Cl)ccc3O)cnc21,42.9%
20,COc1ccc(N2CCN(C(=S)NC(=O)c3cccs3)CC2)c([N+](=O)[O-])c1,52.2%
21,CC1CCN(c2ncnc3c2cnn3Cc2ccc(Cl)cc2)CC1,29.9%
22,COc1cc(/C=C2\SC(=S)NC2=O)ccc1OS(=O)(=O)c1ccccc1,44.6%
23,CCC(CC)C(=O)c1c[nH]c(C(=O)NCc2ccco2)c1,17.9%
24,S=C(NCCC1=CCCCC1)NCc1ccco1,62.4%
25,CCc1ccc(NC(=S)N(Cc2ccccc2)Cc2ccccn2)cc1,44.7%
26,CN1CCN(c2ccc(-c3ccnn3C(=O)Nc3cccc(C(F)(F)F)c3)cc2)CC1,34.6%
27,C(=N/Nc1nc(-c2ccccc2)cc(-c2ccccc2)n1)/c1cccnc1,21.4%
